Test results: paper PMC12820563
Some of the results follow. The list includes weakly bound sequences.

Target: T1, MBP-FoxP3dN (UniProt Q99JB6)
T1 sequence: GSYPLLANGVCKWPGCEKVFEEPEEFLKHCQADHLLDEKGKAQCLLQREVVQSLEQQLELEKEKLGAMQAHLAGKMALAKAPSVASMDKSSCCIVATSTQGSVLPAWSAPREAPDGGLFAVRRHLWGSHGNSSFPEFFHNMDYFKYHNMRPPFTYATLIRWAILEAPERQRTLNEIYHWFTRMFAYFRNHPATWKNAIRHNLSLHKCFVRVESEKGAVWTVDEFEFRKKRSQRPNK
Experiment: PD-seq (MBP pull-down with sequencing)
Conditions: 20 mM Tris-HCl pH 7.5, 100 mM NaCl, 1.5 mM MgCl2, 0.4 uM protein, 0.1 uM dsDNA library, 30 min, room temperature, amylose pull-down; high values mean tight binding; double strand, one strand shown

Sequence	binding signal (RPM ratio (pull-down/input))
GATGATTGTTCTCCCAGCTGATGAATTACAACTATCGAGTAAACAAATTTTCCTAATCTTTCTGTTCAAGCGCCATCTAC	0.938
GATGATTGTTCTCCCAGCTGATGAATTAGTTCAATCGAGTAAACAAATTTTCCTAATCTTTCTGTTCAAGCGCCATCTAC	0.307
GATGATTGTTCTCCCAGCTGATGAATTCATCCAATCGAGTAAACAAATTTTCCTAATCTTTCTGTTCAAGCGCCATCTAC	0.318
GATGATTGTTCTCCCAGCTGATGAATTGAAGCGCTCGAGTAAACAAATTTTCCTAATCTTTCTGTTCAAGCGCCATCTAC	0.396
GATGATTGTTCTCCCAGCTGATGAATTTCGGAGTTCGAGTAAACAAATTTTCCTAATCTTTCTGTTCAAGCGCCATCTAC	0.395
GATGATTGTTCTCCCAGCTGATGAATTCCGTAACTCGAGTAAACAAATTTTCCTAATCTTTCTGTTCAAGCGCCATCTAC	1.77
GATGATTGTTCTCCCAGCTGATGAATTCTCGATATCGAGTAAACAAATTTTCCTAATCTTTCTGTTCAAGCGCCATCTAC	0.375
GATGATTGTTCTCCCAGCTGATGAATTCAGGAGATCGAGTAAACAAATTTTCCTAATCTTTCTGTTCAAGCGCCATCTAC	0.192
GATGATTGTTCTCCCAGCTGATGAATTGAGCTACTCGAGTAAACAAATTTTCCTAATCTTTCTGTTCAAGCGCCATCTAC	1.32
GATGATTGTTCTCCCAGCTGATGAATTCCCTGCGTCGAGTAAACAAATTTTCCTAATCTTTCTGTTCAAGCGCCATCTAC	0.401
GATGATTGTTCTCCCAGCTGATGAATTGAGCTTCTCGAGTAAACAAATTTTCCTAATCTTTCTGTTCAAGCGCCATCTAC	1.72
GATGATTGTTCTCCCAGCTGATGAATTGGTTATTTCGAGTAAACAAATTTTCCTAATCTTTCTGTTCAAGCGCCATCTAC	3.1
GATGATTGTTCTCCCAGCTGATGAATTTATTTGGTCGAGTAAACAAATTTTCCTAATCTTTCTGTTCAAGCGCCATCTAC	6.15
GATGATTGTTCTCCCAGCTGATGAATTGACAGCATCGAGTAAACAAATTTTCCTAATCTTTCTGTTCAAGCGCCATCTAC	1.05
GATGATTGTTCTCCCAGCTGATGAATTTAGGCCGTCGAGTAAACAAATTTTCCTAATCTTTCTGTTCAAGCGCCATCTAC	0.672
GATGATTGTTCTCCCAGCTGATGAATTCGAGGAGTCGAGTAAACAAATTTTCCTAATCTTTCTGTTCAAGCGCCATCTAC	0.252
GATGATTGTTCTCCCAGCTGATGAATTATCAAGTTCGAGTAAACAAATTTTCCTAATCTTTCTGTTCAAGCGCCATCTAC	0.288
GATGATTGTTCTCCCAGCTGATGAATTACAAAATTCGAGTAAACAAATTTTCCTAATCTTTCTGTTCAAGCGCCATCTAC	0.333
GATGATTGTTCTCCCAGCTGATGAATTGTACAGGTCGAGTAAACAAATTTTCCTAATCTTTCTGTTCAAGCGCCATCTAC	0.324
GATGATTGTTCTCCCAGCTGATGAATTACGCTTTTCGAGTAAACAAATTTTCCTAATCTTTCTGTTCAAGCGCCATCTAC	2.9
GATGATTGTTCTCCCAGCTGATGAATTCTTCTGCTCGAGTAAACAAATTTTCCTAATCTTTCTGTTCAAGCGCCATCTAC	0.236

Sequence	binding signal (RPM ratio (pull-down/input))
GATGATTGTTCTCCCAGCTGATGAATTTAAGCCCTCGAGTAAACAAATTTTCCTAATCTTTCTGTTCAAGCGCCATCTAC	0.401
GATGATTGTTCTCCCAGCTGATGAATTACTACTATCGAGTAAACAAATTTTCCTAATCTTTCTGTTCAAGCGCCATCTAC	0.607
GATGATTGTTCTCCCAGCTGATGAATTTCGTCCATCGAGTAAACAAATTTTCCTAATCTTTCTGTTCAAGCGCCATCTAC	0.488
GATGATTGTTCTCCCAGCTGATGAATTACCGGTCTCGAGTAAACAAATTTTCCTAATCTTTCTGTTCAAGCGCCATCTAC	0.339
GATGATTGTTCTCCCAGCTGATGAATTAACTTTTTCGAGTAAACAAATTTTCCTAATCTTTCTGTTCAAGCGCCATCTAC	0.293
GATGATTGTTCTCCCAGCTGATGAATTCCGCCCCTCGAGTAAACAAATTTTCCTAATCTTTCTGTTCAAGCGCCATCTAC	2.18
GATGATTGTTCTCCCAGCTGATGAATTCAGTCGCTCGAGTAAACAAATTTTCCTAATCTTTCTGTTCAAGCGCCATCTAC	0.396
GATGATTGTTCTCCCAGCTGATGAATTAAAATGCTCGAGTAAACAAATTTTCCTAATCTTTCTGTTCAAGCGCCATCTAC	0.748
GATGATTGTTCTCCCAGCTGATGAATTCCGCCAGTCGAGTAAACAAATTTTCCTAATCTTTCTGTTCAAGCGCCATCTAC	2.79
GATGATTGTTCTCCCAGCTGATGAATTGTAAAGCTCGAGTAAACAAATTTTCCTAATCTTTCTGTTCAAGCGCCATCTAC	0.309
GATGATTGTTCTCCCAGCTGATGAATTTGTAGGGTCGAGTAAACAAATTTTCCTAATCTTTCTGTTCAAGCGCCATCTAC	4.93
GATGATTGTTCTCCCAGCTGATGAATTAGTGCGTTCGAGTAAACAAATTTTCCTAATCTTTCTGTTCAAGCGCCATCTAC	2.37
GATGATTGTTCTCCCAGCTGATGAATTTTTCCTTTCGAGTAAACAAATTTTCCTAATCTTTCTGTTCAAGCGCCATCTAC	0.189
GATGATTGTTCTCCCAGCTGATGAATTCATGATATCGAGTAAACAAATTTTCCTAATCTTTCTGTTCAAGCGCCATCTAC	0.552
GATGATTGTTCTCCCAGCTGATGAATTTTCGCTCTCGAGTAAACAAATTTTCCTAATCTTTCTGTTCAAGCGCCATCTAC	0.351
GATGATTGTTCTCCCAGCTGATGAATTTAGTATGTCGAGTAAACAAATTTTCCTAATCTTTCTGTTCAAGCGCCATCTAC	3.23
GATGATTGTTCTCCCAGCTGATGAATTTAACGTGTCGAGTAAACAAATTTTCCTAATCTTTCTGTTCAAGCGCCATCTAC	0.922
GATGATTGTTCTCCCAGCTGATGAATTGTTGCGTTCGAGTAAACAAATTTTCCTAATCTTTCTGTTCAAGCGCCATCTAC	3.78
GATGATTGTTCTCCCAGCTGATGAATTCATGCAATCGAGTAAACAAATTTTCCTAATCTTTCTGTTCAAGCGCCATCTAC	2.7
GATGATTGTTCTCCCAGCTGATGAATTCGGGTGCTCGAGTAAACAAATTTTCCTAATCTTTCTGTTCAAGCGCCATCTAC	0.494
GATGATTGTTCTCCCAGCTGATGAATTCAGCGGCTCGAGTAAACAAATTTTCCTAATCTTTCTGTTCAAGCGCCATCTAC	0.525

Sequence	binding signal (RPM ratio (pull-down/input))
GATGATTGTTCTCCCAGCTGATGAATTAATCGCTTCGAGTAAACAAATTTTCCTAATCTTTCTGTTCAAGCGCCATCTAC	0.534
GATGATTGTTCTCCCAGCTGATGAATTCTAAACCTCGAGTAAACAAATTTTCCTAATCTTTCTGTTCAAGCGCCATCTAC	0.345
GATGATTGTTCTCCCAGCTGATGAATTGCCTGTGTCGAGTAAACAAATTTTCCTAATCTTTCTGTTCAAGCGCCATCTAC	0.881
GATGATTGTTCTCCCAGCTGATGAATTAGCTCAGTCGAGTAAACAAATTTTCCTAATCTTTCTGTTCAAGCGCCATCTAC	0.226
GATGATTGTTCTCCCAGCTGATGAATTTAAACATTCGAGTAAACAAATTTTCCTAATCTTTCTGTTCAAGCGCCATCTAC	0.704
GATGATTGTTCTCCCAGCTGATGAATTATGGGCGTCGAGTAAACAAATTTTCCTAATCTTTCTGTTCAAGCGCCATCTAC	0.683
GATGATTGTTCTCCCAGCTGATGAATTAACATGCTCGAGTAAACAAATTTTCCTAATCTTTCTGTTCAAGCGCCATCTAC	0.621
GATGATTGTTCTCCCAGCTGATGAATTCTAGGCGTCGAGTAAACAAATTTTCCTAATCTTTCTGTTCAAGCGCCATCTAC	0.457
GATGATTGTTCTCCCAGCTGATGAATTGGTAGGATCGAGTAAACAAATTTTCCTAATCTTTCTGTTCAAGCGCCATCTAC	0.367
GATGATTGTTCTCCCAGCTGATGAATTGATGATCTCGAGTAAACAAATTTTCCTAATCTTTCTGTTCAAGCGCCATCTAC	0.741
GATGATTGTTCTCCCAGCTGATGAATTACGTATATCGAGTAAACAAATTTTCCTAATCTTTCTGTTCAAGCGCCATCTAC	1.63
GATGATTGTTCTCCCAGCTGATGAATTGGCTTTTTCGAGTAAACAAATTTTCCTAATCTTTCTGTTCAAGCGCCATCTAC	1.5
GATGATTGTTCTCCCAGCTGATGAATTGGACCGTTCGAGTAAACAAATTTTCCTAATCTTTCTGTTCAAGCGCCATCTAC	0.275
GATGATTGTTCTCCCAGCTGATGAATTTTCGGGGTCGAGTAAACAAATTTTCCTAATCTTTCTGTTCAAGCGCCATCTAC	0.222
GATGATTGTTCTCCCAGCTGATGAATTTTCAAACTCGAGTAAACAAATTTTCCTAATCTTTCTGTTCAAGCGCCATCTAC	0.289
GATGATTGTTCTCCCAGCTGATGAATTGAAGACATCGAGTAAACAAATTTTCCTAATCTTTCTGTTCAAGCGCCATCTAC	0.353
GATGATTGTTCTCCCAGCTGATGAATTCCAGGAGTCGAGTAAACAAATTTTCCTAATCTTTCTGTTCAAGCGCCATCTAC	0.175
GATGATTGTTCTCCCAGCTGATGAATTGTCAGCATCGAGTAAACAAATTTTCCTAATCTTTCTGTTCAAGCGCCATCTAC	1.17
GATGATTGTTCTCCCAGCTGATGAATTACATATGTCGAGTAAACAAATTTTCCTAATCTTTCTGTTCAAGCGCCATCTAC	0.761
GATGATTGTTCTCCCAGCTGATGAATTTGTAATTTCGAGTAAACAAATTTTCCTAATCTTTCTGTTCAAGCGCCATCTAC	3.17
GATGATTGTTCTCCCAGCTGATGAATTCCTCTCATCGAGTAAACAAATTTTCCTAATCTTTCTGTTCAAGCGCCATCTAC	0.316
